Source: PubChem BioAssay AID1745853 (National Center for Advancing Translational Sciences (NCATS), 2022)
Some of the results follow. The main result of the screen is listed elsewhere. These columns were measured beside it and carry no call.

Columns and labels:
Experiment in all cases: Primary Screen for Target Class Profiling of Small Molecule Inhibitors of Methyltransferases
[1] = target: Glycine N-methyltransferase (Homo sapiens) (UniProt Q14749); conditions: purified enzyme, MTase-Glo SAH luminescence; measured here: GNMT inhibition; at 40 µM; stronger effect = lower value
Procedure, shortened: (§1)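 Each enzyme was assayed with SAM and its substrate. SAH formation detected by MTase-Glo luminescence; single-point 40 uM screen[…].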

[2] = target: Guanidinoacetate N-methyltransferase (Homo sapiens) (UniProt Q14353); conditions: purified enzyme, MTase-Glo SAH luminescence; measured here: GAMT inhibition; at 40 µM; stronger effect = lower value
Procedure, shortened: as §1

[3] = target: Histamine N-methyltransferase (Homo sapiens) (UniProt P50135); conditions: purified enzyme, MTase-Glo SAH luminescence; measured here: HNMT inhibition; at 40 µM; stronger effect = lower value
Procedure, shortened: as §1

[4] = target: Nicotinamide N-methyltransferase (Homo sapiens) (UniProt P40261); conditions: purified enzyme, MTase-Glo SAH luminescence; measured here: NNMT inhibition; at 40 µM; stronger effect = lower value
Procedure, shortened: as §1

[5] = target: Phenylethanolamine N-methyltransferase (Homo sapiens) (UniProt P11086); conditions: purified enzyme, MTase-Glo SAH luminescence; measured here: PNMT inhibition; at 40 µM; stronger effect = lower value
Procedure, shortened: as §1
% is scaled to controls: 0 for no effect and ±100 for the full control effect.

Structure (SMILES)	activity change, negative = inhibition [1]	activity change, negative = inhibition [2]	activity change, negative = inhibition [3]	activity change, negative = inhibition [4]	activity change, negative = inhibition [5]
C=C1/C(=C/C=C2\CCC[C@]3(C)[C@@H]([C@H](C)CC[C@@H](O)C(C)(C)O)CC[C@@H]23)C[C@@H](O)C[C@@H]1O	-12.6%	5.22%	-6.22%	-19.4%	-16.2%
O=C(NCc1ccncc1)C1c2ccccc2C(=O)N(C2CCCC2)C12CCCCC2 (stereo not given)	-9.66%	-10%	-5.64%	-15%	-8.66%
Cn1c(=O)c2ccc(C(=O)NC3CCCC3)cc2n2c(=O)n(CC(=O)Nc3ccc(F)cc3)nc12	2.84%	0%	2.2%	2.82%	2.48%
C=C1C(=O)OC2/C=C(\CO)CC/C=C(\C=O)C(O)C(OC(=O)C(C)CC)C12 (stereo not given)	4.31%	-0.075%	5.76%	-5.64%	8.57%
Cc1ccc(NC(=O)CSc2nnc3n(CC(C)C)c(=O)c4ccc(C(=O)NCC(C)C)cc4n23)cc1	0.796%	0%	-1.2%	-6.94%	2.34%
O=C(Nc1nc2ccc([N+](=O)[O-])cc2s1)C1CCCCC1	-2.28%	-4.88%	-2.15%	-14.8%	-12%
Cn1c(CNC(=O)C2(C)CCCCC(=O)N2)nc2ccccc21 (stereo not given)	-2.28%	-1.95%	-1.83%	-0.191%	-5.19%
Cn1c(=O)c2ccc(C(=O)NC3CCCC3)cc2n2c(SCC(=O)Nc3ccc(Cl)cc3)nnc12	0.451%	0%	3.45%	2.34%	3.47%
COCCn1cnc2ccc(-c3cccc(O)c3)nc2c1=O	-7.73%	-8.23%	-15.3%	-12.4%	-12.2%
O=C(NCc1ccccc1C(F)(F)F)c1cccc2c1CCN2C(=O)C1CC1	-3.57%	0.895%	0.923%	-5.58%	0.398%
Cc1cc(CN(C)Cc2ccc(F)cc2)no1	-2.38%	1.32%	2.52%	-4.35%	0.253%
Cc1nnc(-c2ccc3occ(-c4ccc(S(C)=O)cc4)c3c2)o1 (stereo not given)	-12.2%	3.67%	6.37%	-13.9%	0.55%
O=C(c1ccc(Cl)c([N+](=O)[O-])c1)N1CCN(c2ccccc2F)CC1	-3.36%	2.4%	8.13%	-13.8%	-2.35%
O=C(Nc1ccc(C(F)(F)F)cc1)N[C@@H]1C[C@H](CO)[C@@H](O)[C@H]1O	-3.72%	-8.13%	-2.48%	-12%	5.82%
CCCn1c(=O)c2ccc(C(=O)NC3CCCC3)cc2n2c(SCC(=O)c3ccccc3)nnc12	0.924%	0%	0.906%	-2.11%	2.49%
COCCN1CCCC2(CCN(C(=O)CCn3cncn3)C2)C1=O (stereo not given)	-2.67%	-2.38%	-1.62%	-6%	-1.19%
